# Reference: the BET-seq Pho4 binding data (Le et al. 2018)
# The other results are listed elsewhere or left out. These are noisy estimates, calculated here from bound and input reads.
# Target: T1, Pho4 (S. cerevisiae) (UniProt P07270)
# T1 sequence: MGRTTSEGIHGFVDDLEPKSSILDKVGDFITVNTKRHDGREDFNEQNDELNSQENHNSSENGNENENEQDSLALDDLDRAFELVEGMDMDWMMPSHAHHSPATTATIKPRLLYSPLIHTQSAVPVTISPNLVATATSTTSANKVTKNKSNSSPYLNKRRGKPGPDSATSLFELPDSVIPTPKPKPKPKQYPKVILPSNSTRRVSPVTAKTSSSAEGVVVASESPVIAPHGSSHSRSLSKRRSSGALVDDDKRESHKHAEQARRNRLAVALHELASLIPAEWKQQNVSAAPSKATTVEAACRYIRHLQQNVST
# Experiment: relative binding free energy (BET-seq); higher = weaker binding
# Conditions: reference: library average
row,Sequence,relative binding free energy
1,GGCTGCACGTGACGGG,0.02 kcal/mol
2,TTTTACACGTGCTCGG,-0.03 kcal/mol
3,TTCGACACGTGCTGGG,-0.04 kcal/mol
4,GTAAGCACGTGTCGGG,0.03 kcal/mol
5,AGGCCCACGTGGTATG,-0.07 kcal/mol
6,TTAGTCACGTGGAATT,0.13 kcal/mol
7,TACGGCACGTGGGTTT,-0.19 kcal/mol
8,AGGGTCACGTGTTTAT,0.16 kcal/mol
9,GTTCTCACGTGTGGTC,0.32 kcal/mol
10,CATAGCACGTGGAAGG,0.03 kcal/mol
11,AGGCTCACGTGAGCGG,0.32 kcal/mol
12,GTGCCCACGTGGGTTT,-0.18 kcal/mol
13,CCGGGCACGTGGGGTG,-0.24 kcal/mol
14,GGTTACACGTGCGAGA,0.24 kcal/mol
15,TGGGTCACGTGCTGTC,0.21 kcal/mol
16,GGTATCACGTGATGTA,0.23 kcal/mol
17,TAGGTCACGTGATAAA,0.29 kcal/mol
18,TATACCACGTGGGTTT,-0.16 kcal/mol
19,TTAGTCACGTGATTCA,0.24 kcal/mol
20,TCTGGCACGTGAGTTG,0.21 kcal/mol
21,TTCTTCACGTGGTTTG,0.08 kcal/mol
22,GGTGGCACGTGTTTGC,-0.12 kcal/mol
23,GGGAACACGTGGCGTT,0.04 kcal/mol

row,Sequence,relative binding free energy
1,CAGGCCACGTGGTGGA,-0.11 kcal/mol
2,AATGGCACGTGAGTTC,0.19 kcal/mol
3,TGTTACACGTGGCGTA,0.13 kcal/mol
4,GATAGCACGTGATGGT,0.16 kcal/mol
5,TTAGACACGTGGAGTA,-0.03 kcal/mol
6,TTTTACACGTGGGAAG,0.11 kcal/mol
7,TTTGTCACGTGCTGGG,0.11 kcal/mol
8,ATGTCCACGTGTTATT,-0.06 kcal/mol
9,ATGGTCACGTGCTAGT,-0.04 kcal/mol
10,GAGGACACGTGGCGTG,-0.07 kcal/mol
11,AATGTCACGTGTTGGC,0.17 kcal/mol
12,AGTGACACGTGATAGG,-0.07 kcal/mol
13,AAAGTCACGTGTTTTG,0.1 kcal/mol
14,GGGTACACGTGGGGCC,0.04 kcal/mol
15,AGAGGCACGTGTGTGA,-0.1 kcal/mol
16,ATTGGCACGTGGGTAC,-0.24 kcal/mol
17,GTTTACACGTGGGCTG,-0.05 kcal/mol
18,GTGAACACGTGATGTT,0.19 kcal/mol
19,TGGGCCACGTGTGTGT,-0.09 kcal/mol
20,CTGCGCACGTGGGTTT,-0.21 kcal/mol
21,TGGTCCACGTGAGGCA,0.29 kcal/mol
22,GGCGTCACGTGATTGT,0.22 kcal/mol
23,ATTGTCACGTGAACTT,0.29 kcal/mol

row,Sequence,relative binding free energy
1,GGATTCACGTGTACTG,0.36 kcal/mol
2,AGGTCCACGTGTCGGT,-0.1 kcal/mol
3,GGATTCACGTGGAGAA,0.33 kcal/mol
4,GGTCGCACGTGGATAG,-0.1 kcal/mol
5,CAGGTCACGTGGTTAT,0.16 kcal/mol
6,ATATACACGTGGTGGC,-0.14 kcal/mol
7,TTGTGCACGTGTTTGG,0.02 kcal/mol
8,TGTATCACGTGGCTTT,0.15 kcal/mol
9,TTTAACACGTGCATTG,0.08 kcal/mol
10,GATGCCACGTGTGGGA,0.12 kcal/mol
11,GTTATCACGTGGTGAT,0.09 kcal/mol
12,TGTAACACGTGCAGGT,-0.18 kcal/mol
13,GACGGCACGTGGTCAG,0.04 kcal/mol
14,GTGTGCACGTGTCGCT,0.05 kcal/mol
15,TCTCGCACGTGAGTTT,0.27 kcal/mol
16,GCAGTCACGTGGTGTA,-0.07 kcal/mol
17,AGATGCACGTGGAGAT,-0.09 kcal/mol
18,TCGGTCACGTGGGGGT,-0.05 kcal/mol
19,CTTGGCACGTGTGGGT,0.02 kcal/mol
20,AGGTACACGTGATTAG,0.16 kcal/mol
21,AGTAGCACGTGTGGGA,-0.05 kcal/mol
22,TATAGCACGTGGGATC,-0.06 kcal/mol
23,GTGTTCACGTGCGTTG,0.22 kcal/mol

row,Sequence,relative binding free energy
1,TTTACCACGTGTGCTT,-0.02 kcal/mol
2,TGTGTCACGTGTAACG,0.13 kcal/mol
3,TGCGGCACGTGGCTAG,-0.1 kcal/mol
4,TTTAGCACGTGGCGAG,-0.12 kcal/mol
5,TTTTCCACGTGTATAT,0.08 kcal/mol
6,GTTTTCACGTGAAGGC,0.34 kcal/mol
7,CTTGTCACGTGGATAG,-0.01 kcal/mol
8,GGTCACACGTGGGTGT,-0.05 kcal/mol
9,AGAAACACGTGGTTTG,-0.01 kcal/mol
10,AGGTTCACGTGGGAAA,0.19 kcal/mol
11,AGTGACACGTGTAATA,0.08 kcal/mol
12,AGCTGCACGTGGTGAT,-0.11 kcal/mol
13,TCTGACACGTGGTGAT,-0.03 kcal/mol
14,TTATACACGTGAGGCG,0.42 kcal/mol
15,AGGCCCACGTGTGGGT,-0.14 kcal/mol
16,TTGCGCACGTGGTTGT,-0.17 kcal/mol
17,TGGGACACGTGAGTTG,0.37 kcal/mol
18,TTTGCCACGTGGAGCT,0.03 kcal/mol
19,GTGCGCACGTGATGAG,0.13 kcal/mol
20,CGGATCACGTGGGGCG,0 kcal/mol
21,GATTGCACGTGGTGTT,0.15 kcal/mol
22,GATGACACGTGCGTTT,-0.01 kcal/mol
23,AGGCGCACGTGTGTAA,-0.06 kcal/mol

row,Sequence,relative binding free energy
1,GTAGACACGTGTGTGG,0.1 kcal/mol
2,GAGCGCACGTGGGGCG,-0.35 kcal/mol
3,GAGCCCACGTGGGGGT,-0.11 kcal/mol
4,TGGTGCACGTGAGGTA,0.19 kcal/mol
5,GGCATCACGTGTGGGA,0.13 kcal/mol
6,TATAGCACGTGTTGTC,-0.18 kcal/mol
7,AATGACACGTGGTTTG,0.01 kcal/mol
8,TAGGTCACGTGGCATG,-0.06 kcal/mol
9,GGTTCCACGTGAGGGT,0.31 kcal/mol
10,TAGTGCACGTGCATTT,-0.17 kcal/mol
11,TGTGTCACGTGTCTGG,0.04 kcal/mol
12,TACATCACGTGGAGTT,0.12 kcal/mol
13,CGTGTCACGTGGCTTG,-0.02 kcal/mol
14,TTTATCACGTGGCCTT,0.01 kcal/mol
15,TAGGCCACGTGGGGAC,-0.03 kcal/mol
16,ATGTGCACGTGTGAAG,0.07 kcal/mol
17,ATCTGCACGTGTGAGG,-0.01 kcal/mol
18,AACTGCACGTGGGCGG,-0.23 kcal/mol
19,GTTGACACGTGCGAGG,0.04 kcal/mol
20,GAAATCACGTGGTTGG,0.21 kcal/mol
21,TAGCGCACGTGGGTGC,-0.36 kcal/mol
22,AAATACACGTGGGTTA,-0.15 kcal/mol
23,TATTACACGTGGGACT,0.04 kcal/mol
